Measurements published in PubChem BioAssay AID1346428 (National Center for Advancing Translational Sciences (NCATS), 2018).
Among all 48,000 compounds or so, about 1,200 (2.5%) were called active. Inconclusive results (about 2%) are left out.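 Rule for the calls: active = activation of at least 60% and not above a set upper limit (about 1 call in 100 departs from these limits); inconclusive = activation of 40% to 60%, or above that upper limit; inactive = activation under 40%.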 This is one part of the list.
Note: 0% is about no effect.

These compounds were tested against Probable G-protein coupled receptor 32 (Homo sapiens) (UniProt O75388) (assay: qHTS for Agonists of Human Resolvin D1 Receptor DRV1). Conditions: CHO-K1 GPR32 beta-arrestin PathHunter luminescence, 90 min; at 76.9 µM; hits give high values; zero percent set by DMSO-only wells.
UniProt O75388, sequence (O75388 whole entry, looked up): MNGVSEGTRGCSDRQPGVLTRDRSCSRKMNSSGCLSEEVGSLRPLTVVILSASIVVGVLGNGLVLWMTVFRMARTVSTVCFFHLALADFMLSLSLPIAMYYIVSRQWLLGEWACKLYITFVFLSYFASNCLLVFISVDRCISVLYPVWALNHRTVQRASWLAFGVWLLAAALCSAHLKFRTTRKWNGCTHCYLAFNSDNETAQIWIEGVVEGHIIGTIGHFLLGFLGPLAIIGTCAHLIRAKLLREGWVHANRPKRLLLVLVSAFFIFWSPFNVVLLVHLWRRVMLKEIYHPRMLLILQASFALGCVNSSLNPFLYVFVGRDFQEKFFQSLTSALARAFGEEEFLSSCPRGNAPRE
How it was run: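 Step 1: seed CHO-K1 GPR32 beta-arrestin cells, 2,500/well, overnight at 37 °C. Step 2: add compounds, 90 min at 37 °C. Step 3: detection reagent, 1 h ambient, then luminescence.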
For `CCc1cnc2c(c1SCc1cc(OC)cc(OC)c1)c(=O)n(C)c(=O)n2C`, the activation was inactive: -1.2%. `COc1ccc(OC)c(S(=O)(=O)NCCS(=O)(=O)N2CCN(c3ccccc3F)CC2)c1` was tested, and the activation was inactive: -11.6%. With `CCS(=O)(=O)NCCc1csc2nc(-c3ccc(OC)cc3)nn12` the activation was inactive: -6.87%. In the case of `Cc1ccc(OCCn2c(C3CC(=O)N(Cc4ccc(F)cc4)C3)nc3ccccc32)c(C)c1` (stereo not given), the activation is reported as inactive: -34.6%. For `COc1ccccc1/C=C/C(=O)Nc1nc2n(n1)C(c1ccc(F)cc1)C=C(c1ccccc1)N2` (stereo not given), the activation was inactive: -15.8%. In the case of `CSc1ncc(C(=O)NCc2cccc(C)c2)c(-c2ccccc2)n1`, the activation is reported as inactive: -11.8%. For `Cc1ccc(C(=O)C(=O)O)cc1C`, the activation was inactive: 3.88%. For `O=S(=O)(NCC(c1ccccc1)N1CCc2ccccc21)c1ccc(Cl)cc1` (stereo not given), the activation was inactive: -10.3%. With `C=CCc1ccccc1OCCSc1nc(-c2ccccc2F)nc2cc(=O)[nH]n12` the activation was inactive: -27%. `COC(=O)c1ccc(NC(=O)CC2C(=O)N(c3ccccc3)C(=O)N2Cc2cccs2)cc1` (stereo not given) was tested, and the activation was inactive: -14.6%. `CCN(CC)C(=O)c1sc2c(c1C)c(=O)n(-c1ccc(OC)cc1OC)c(=O)n2CC(=O)Nc1ccccc1` was tested, and the activation was inactive: -10.9%. For `Cc1cccc(N2CCN(c3nc4ccccc4c4nnc(C)n34)CC2)c1C`, the activation was inactive: 3.58%. With `COc1ccc(CNC(=O)Cn2cccc2C(=O)c2ccccc2C)cc1` the activation was inactive: -18.4%. For `COc1ccc(C(=O)c2cn(Cc3ccccc3OC)c3cc4c(cc3c2=O)OCO4)cc1`, the activation was inactive: 17.1%. `Cc1cccc(NC(=O)c2c(NC(=O)c3ccccc3)sc3c2CCC3)c1` was tested, and the activation was inactive: 9.32%. `Cc1cc(C)cc(-n2ccnc2SCC(=O)Nc2ccccc2F)c1` was tested, and the activation was inactive: -10.4%. For `COc1ccc(CNC(=O)CCc2c(C)nc3cc(-c4ccc(OC)cc4OC)nn3c2C)cc1`, the activation was inactive: -1.98%. In the case of `CC(C)=CCNc1ncnc2c1ncn2[C@@H]1O[C@H](CO)[C@@H](O)[C@H]1O`, the activation is reported as inactive: 22.9%. `Fc1ccc(-c2cc(-c3ccc(F)cc3)c3c(n2)-c2cc(F)ccc2OC3)cc1` was tested, and the activation was inactive: -3.83%. With `Fc1ccc(Nc2nc(-c3cccc(Cl)c3)c3c(n2)-c2ccccc2OC3)c(F)c1` the activation was inactive: -5.01%. For `Cc1oc(=O)oc1COC(=O)[C@@H]1N2C(=O)[C@@H](NC(=O)[C@H](N)c3ccccc3)[C@H]2SC1(C)C`, the activation was inactive: 24.3%. With `Cc1cccc(NC(=O)Cn2c(=O)n(CC3CCC(C(=O)NCCc4ccccc4)CC3)c(=O)c3ccccc32)c1` (stereo not given) the activation was inactive: 7.66%. `CCOC(=O)c1cc(-c2ccc(F)cc2)n(CCC(=O)NC2CCC(C)CC2)c1C` (stereo not given) was tested, and the activation was inactive: -20%. For `CCc1ccc(NC(=O)CSc2nc(-c3ccc(C)cc3)nc3c2Cc2c(CO)cnc(C)c2O3)cc1`, the activation was inactive: -5.41%. In the case of `CCOc1ccc2nc(N3CCCC(C(=O)Nc4ccccc4CC)C3)sc2c1` (stereo not given), the activation is reported as inactive: -6.59%. In the case of `CCc1ccc(-c2nc3cc(NC(=O)c4ccc(C)c(C)c4)ccc3o2)cc1`, the activation is reported as inactive: -8.88%. For `O=C(O)Cc1ccc2c(c1)C(=O)c1ccccc1CO2`, the activation was inactive: -5.35%. In the case of `COc1ccc(S(=O)(=O)n2nc(-c3ccco3)nc2NCc2ccc(C(C)C)cc2)cc1`, the activation is reported as inactive: -12.4%. In the case of `CCOc1ccc(NC(=O)c2nc(S(=O)(=O)Cc3ccccc3F)ncc2Cl)cc1`, the activation is reported as inactive: -25.3%. With `Cc1c(NC(=O)c2cccs2)cccc1-c1nc2cc(Cl)ccc2o1` the activation was inactive: -11.8%. For `CCOc1ccc(C(=O)Nc2ccc(OCc3cc(=O)n4cccc(C)c4n3)cc2)cc1`, the activation was inactive: -3.58%. For `O=C(NCCCN1CCN(c2ccccc2F)CC1)c1ccc2nc(CCc3ccccc3)oc2c1`, the activation was inactive: 0.73%. With `COc1cccc(NC(=O)Cn2c(=O)n(Cc3ccc(F)cc3)c(=O)c3sc4ccccc4c32)c1` the activation was inactive: -9.58%. With `CC(=O)NCCNC(=O)CCCc1nnc2n(CC(C)C)c(=O)c3sccc3n12` the activation was inactive: -0.539%. In the case of `Cc1nc2ccccc2n1Cc1ccc(Cl)cc1`, the activation is reported as inactive: 26.4%. `COc1ccc(-c2cc(-c3nc(-c4cc(OC)c(OC)c(OC)c4)no3)[nH]n2)c(OC)c1` was tested, and the activation was inactive: -1.08%. With `COc1ccc(S(=O)(=O)NCc2cccn2Cc2cc(C)ccc2C)cc1OC` the activation was inactive: -4.88%. For `CCc1nnc2c3ccccc3nc(Nc3cc(C)cc(C)c3)n12`, the activation was inactive: -5.42%. `Cc1ccc(C(=O)Nc2cc(-c3cn4cccnc4n3)ccc2C)cc1C` was tested, and the activation was inactive: 13.2%. For `Cc1nnc(NC(=O)CSc2nccn2Cc2ccccc2)s1`, the activation was inactive: -5.5%. `CSCCC(NS(=O)(=O)c1ccc2c(c1)oc(=O)n2C)C(=O)NCc1ccc(Cl)cc1` (stereo not given) was tested, and the activation was inactive: 1.92%. With `Cc1ccc(C)c(NC(=O)c2nc(S(=O)(=O)Cc3ccc(F)cc3)ncc2Cl)c1` the activation was inactive: 7.8%. With `CCS(=O)(=O)c1ncc(N(Cc2ccccc2)Cc2ccco2)c(C(=O)Nc2ccccc2C)n1` the activation was inactive: -16.7%. For `CCc1ccccc1S(=O)(=O)Cc1ccc(C(=O)NCCc2ccc(Cl)cc2)o1`, the activation was active: 65.7%. For `O=C(Nc1cc(-c2cccc(Cl)c2)nn1-c1ccccc1)c1ccccc1F`, the activation was inactive: 15.2%. For `NCC[C@H](O)C(=O)N[C@@H]1C[C@H](N)[C@@H](O[C@H]2O[C@H](CN)[C@@H](O)[C@H](O)[C@@H]2O)[C@H](O)[C@@H]1O[C@H]1O[C@H](CO)[C@@H](O)[C@H](N)[C@@H]1O`, the activation was inactive: -0.517%. In the case of `CC(C)CCNc1nc(Nc2ccccc2)c2cnn(C)c2n1`, the activation is reported as inactive: -22.5%. With `CCOC(=O)c1ccc(-n2c(CCC(=O)O)ccc2-c2ccccc2)cc1O` the activation was inactive: -3.16%. With `Cc1cc(F)ccc1Nc1nc2ccc(Cl)cc2n2cnnc12` the activation was inactive: -25%. With `CCC(C)(C)NC(=O)C(NS(=O)(=O)c1cccs1)c1ccccc1` (stereo not given) the activation was inactive: -3.67%. With `COc1ccc(N2CCN(C(=O)C(CC(C)C)NS(=O)(=O)c3ccc4nc(C)sc4c3)CC2)cc1` (stereo not given) the activation was inactive: -13.6%. For `Cc1cc(=O)oc2cc(O)ccc12`, the activation was inactive: -7.06%. With `CNC(=O)c1cc2c(cn1)[nH]c1ccccc12` the activation was inactive: 15.5%. For `CC(CC(=O)Nc1ccc(F)cc1)S(=O)(=O)c1cc2c3c(c1)CCN3C(=O)CC2` (stereo not given), the activation was inactive: -3.24%. For `COc1ccc(NC(=O)/C=C/c2ccc(Cl)cc2)cc1`, the activation was inactive: 12.8%. `COC(=O)c1ccccc1NC(=O)CSc1nc2ccccc2nc1Cc1ccc(F)cc1` was tested, and the activation was inactive: -7.36%. `O=C(NC1CCCCC1)c1ccc2c(c1)N(Cc1cccc(Cl)c1)C(=O)c1ccccc1S2(=O)=O` was tested, and the activation was inactive: -19.2%. In the case of `CNc1ccc(-c2nc(-c3ccncc3)no2)cc1[N+](=O)[O-]`, the activation is reported as inactive: 0.499%. In the case of `COc1ccc(NC(=O)C2=C(C)Nc3ncnn3C2c2sccc2C)cc1` (stereo not given), the activation is reported as inactive: 1.92%. In the case of `CC(=O)N1CCCC1c1nc2ccccc2n1Cc1c(F)cccc1Cl` (stereo not given), the activation is reported as inactive: -6.83%. In the case of `COc1cc(OC)c(NC(=O)Cc2c(C(=O)O)c(C)cn2C)cc1Cl`, the activation is reported as inactive: -7.99%. For `CCCCn1c(=O)c2oc3ccccc3c2n(CC(=O)Nc2cc(C)ccc2C)c1=O`, the activation was inactive: -9.04%. In the case of `Cc1ccc(CNC(=O)Cc2c(C(=O)O)c(C)cn2C)cc1`, the activation is reported as inactive: 0.819%. `Cc1ccc2oc(=O)n(CCNC(=O)Nc3ccccc3C)c2c1` was tested, and the activation was inactive: 30.6%. For `COc1ccc(OC2CCN(S(=O)(=O)c3cccc(F)c3)CC2)cc1`, the activation was inactive: -21.1%. In the case of `CCc1ccc(OCC(=O)Nc2ccc(S(=O)(=O)Nc3onc(C)c3C)cc2)cc1`, the activation is reported as inactive: 35.2%. `COc1ccc(C)cc1NC(=O)C(NS(=O)(=O)c1cccs1)c1ccccc1` (stereo not given) was tested, and the activation was inactive: 15%. With `Cc1cccc(C(=O)N2CCNC(=O)C2CC(=O)Nc2ccc(F)cc2)c1` (stereo not given) the activation was inactive: 7.54%. In the case of `CCOc1ccc(CN2C(=O)c3ccccc3Sc3ccc(C(=O)NCc4ccc5c(c4)OCO5)cc32)cc1`, the activation is reported as inactive: -18.8%. For `Cc1ccccc1NC(=O)Nc1csc2c1CCCC2`, the activation was inactive: 0.4%. With `COc1ccc(C(=O)CSc2nc3cc(C(=O)NC4CCCC4)ccc3c(=O)n2CC2CCCO2)cc1` (stereo not given) the activation was inactive: -14.9%. For `Cc1cccc(NC(=O)Cn2c(=O)n(CCc3ccccc3)c(=O)c3ccccc32)c1`, the activation was active: 74.8%. `COc1ccc(C2C(C(=O)Nc3ccccc3)=C(C)Nc3nc(-c4ccccc4)nn32)c(OC)c1` (stereo not given) was tested, and the activation was inactive: -13.2%. With `COC(=O)c1cc2oc3ccccc3c2n1CC(=O)Nc1cccc(SC)c1` the activation was inactive: 26.7%. In the case of `CCCc1cnc2c(c1SCc1cccc(C)c1)c(=O)n(C)c(=O)n2C`, the activation is reported as inactive: -16.3%. In the case of `CCCOc1cccc(C(=O)Nc2cc(-c3nc4ccccc4[nH]3)ccc2C)c1`, the activation is reported as inactive: 21.2%. In the case of `COc1ccc(S(=O)(=O)NCCc2sc(C)nc2C)cc1`, the activation is reported as inactive: 12.2%. For `COc1cc(OC)c(NC(=O)c2sc3nc4n(c(=O)c3c2C)CCCC4)cc1Cl`, the activation was inactive: 8.19%. In the case of `CCCCC(=O)N1CC(=O)Nc2ccc(F)cc2C1c1ccc(F)cc1` (stereo not given), the activation is reported as inactive: -5.68%. With `O=C(CC1C(=O)OCCN1Cc1ccccc1)Nc1cccc(Cl)c1` (stereo not given) the activation was inactive: 23.4%. With `Cc1ccc(CCNC(=O)CN2C(=O)COc3ccc(S(=O)(=O)N4CCCC4)cc32)cc1` the activation was inactive: -14.8%. With `Cc1cc(C)cc(NC(=O)c2nnn(Cc3cccc(Br)c3)c2N)c1` the activation was inactive: 37.7%. `COc1ccc(-n2c(-c3ccccc3F)nc3c(cnn3-c3ccc(C)cc3)c2=O)cc1` was tested, and the activation was inactive: -26.1%. `CCOc1cc(Cn2c(-c3ccc(O)c(OCC)c3)nc3ccccc32)ccc1O` was tested, and the activation was inactive: -23%. In the case of `CCOC(=O)[C@H](CCc1ccccc1)N[C@H]1CCc2ccccc2N(CC(=O)O)C1=O`, the activation is reported as inactive: 5.98%.
